Source: PubChem BioAssay AID360 (National Center for Advancing Translational Sciences (NCATS), 2006)
Out of some 48,000 compounds screened, about 550 (1.1%) were called active. Another 4% or so got no clear call; they are omitted. Cut-off read from the data, not from the text of the source: active = potency below about 15 µM; inconclusive = mostly about 16 µM to 33 µM; inactive = weaker than that. This is one part of the list.

target: Lysosomal acid glucosylceramidase (Homo sapiens) (UniProt P04062); assay: Glucocerebrosidase; details: purified enzyme, resorufin glucoside fluorescence (screen aimed at inhibitors), 20 min; series mostly up to 77 µM;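 note: the screen sought inhibitors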
Summary of the method: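 Wild-type enzyme at 0.2 nM final in 50mM citric acid/KH2PO4, 10mM sodium taurocholate, 0.01% tween-20, pH 5.9, with resorufin beta-D-glucopyranoside at 30 uM final. Compounds titrated, 20 min at RT, red fluorescence read; AC50 from titration.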
Potency is the fitted concentration of half-maximal effect.

Sequence of UniProt P04062 (P04062 whole entry, looked up): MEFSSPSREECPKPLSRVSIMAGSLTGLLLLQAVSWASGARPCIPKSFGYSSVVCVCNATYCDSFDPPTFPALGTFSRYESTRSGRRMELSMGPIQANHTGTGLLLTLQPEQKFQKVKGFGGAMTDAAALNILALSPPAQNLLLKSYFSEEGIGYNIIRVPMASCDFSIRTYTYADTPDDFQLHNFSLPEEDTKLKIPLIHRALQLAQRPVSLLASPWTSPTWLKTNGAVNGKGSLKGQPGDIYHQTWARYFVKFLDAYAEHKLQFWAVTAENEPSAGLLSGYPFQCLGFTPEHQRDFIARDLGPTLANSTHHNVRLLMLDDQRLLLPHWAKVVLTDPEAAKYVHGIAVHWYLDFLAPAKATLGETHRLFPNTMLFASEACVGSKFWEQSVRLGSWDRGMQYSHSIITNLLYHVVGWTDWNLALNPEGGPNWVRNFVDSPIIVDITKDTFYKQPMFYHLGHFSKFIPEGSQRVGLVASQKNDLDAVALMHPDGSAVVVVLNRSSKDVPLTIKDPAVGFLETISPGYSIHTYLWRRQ

Potency, inactive:
Cn1c(=O)n(C/C=C/c2ccccc2)c(=O)c2c1nc1n2CCCN1c1ccc(F)cc1 > 76.9 µM
CCCCN(C(=O)Cn1nnc2ccccc21)C(C(=O)NCCOC)c1ccc(OC)cc1OC (centres undefined) > 76.9 µM
Cc1ccc2[nH]c(=O)c(C(c3nnnn3CC3CCCO3)N3CCc4ccccc4C3)cc2c1 (centres undefined) > 76.9 µM
CCOC(=O)N1CCN(C(=O)c2ccc(Cl)c(S(=O)(=O)Nc3ccccc3)c2)CC1 > 76.9 µM
CC1=CC(C)(C)N2C(=O)C3(C(C#N)=C(N)OC4=C3C(=O)CCC4)c3c(C)c(C)cc1c32 (centres undefined) > 76.9 µM
COC(=O)[C@H](CCSC)NC(=O)Nc1ccc(OC)c(Cl)c1 > 76.9 µM
COC(=O)C1(CCSC)NC(c2ccco2)C2C(=O)N(C)C(=O)C21 (centres undefined) > 76.9 µM
C/C(=N\O)C(=O)NCc1ccccn1 > 76.9 µM
COC(=O)C(Cc1ccccc1)NC(=O)CSc1nc(N)cc(=O)[nH]1 (centres undefined) > 76.9 µM
O=C(O)c1cc(-c2ccccc2)c(N2CCOCC2)s1 > 76.9 µM
COC(=O)c1ccc(CNC(=O)CSc2nnc(COc3ccccc3)n2C)o1 > 76.9 µM
O=C(NCc1cccnc1)C1CCN(S(=O)(=O)N2CCOCC2)CC1 > 76.9 µM
COc1ccccc1NC(=O)C(O)C(O)C(=O)Nc1ccccc1OC (centres undefined) > 76.9 µM
O=C(NCc1ccncc1)c1cccc(F)c1 > 76.9 µM
CCCCN(CCCC)C(=O)CN(C)S(=O)(=O)c1ccc2c(c1)n(C)c(=O)c(=O)n2C > 76.9 µM
CC(C)CNC(=O)c1cc(-c2ccco2)on1 > 76.9 µM
Cc1onc(-c2ccccc2Cl)c1C(=O)Nc1ccc(-c2cn3cccnc3n2)cc1
CCOC(=O)CC(=O)CSc1nc2ccccc2c(=O)n1-c1ccc(C(=O)N2CCOCC2)cc1 > 76.9 µM
CC1CN(C(=O)c2cc3cc(Cl)cc(Cl)c3oc2=O)CC(C)O1 (centres undefined) > 76.9 µM
COc1ccc(-c2nc3ncccn3c2Nc2ccc3c(c2)OCCO3)cc1 > 76.9 µM
CCOc1ccc(-c2[nH]ncc2Oc2cccc(OC)c2)c(O)c1 > 76.9 µM
CC(=NCC1CCCO1)c1c(O)[nH]c(=O)[nH]c1=O (centres undefined) > 76.9 µM
O=C(O)CCc1ccc(-c2ccc(F)cc2)n1CCC(=O)O > 76.9 µM
COc1ccc(C2NCCO2)cc1OC (centres undefined) > 76.9 µM
COc1ccc(Cl)cc1NC(=O)Cn1cccc1
CCSc1nnc(NC(=O)CSc2nc3c(c(=O)n2-c2ccccc2OC)SCC3)s1 > 76.9 µM
COC(=O)c1ccccc1S(=O)(=O)N(CCCO)Cc1cc2c(C)ccc(C)c2[nH]c1=O > 76.9 µM
O=C(O)C1CSC2c3ccccc3C(=O)N12 (centres undefined) > 76.9 µM
Cc1cc(C)nc(NS(=O)(=O)c2ccc(-n3cccc3)cc2)n1 > 76.9 µM
O=c1[nH]c(NCc2ccccc2)nc2c1CCC2 > 76.9 µM
O=S(=O)(c1cc(Cl)ccc1Br)N1CCCCC1 > 76.9 µM
CCOC(=O)N1CCC(NC(=O)Cn2cc3c(n2)CCC(C)C3)CC1 (centres undefined) > 76.9 µM
Cc1c(NC(=O)Nc2ccc3c(c2)OCO3)c(=O)n(-c2ccccc2)n1C > 76.9 µM
c1ccc(CCCc2nc(-c3ccccn3)no2)cc1 > 76.9 µM
Nc1ccc2ncccc2c1 > 76.9 µM
O=C(NCc1cccc(Cl)c1)c1cnccn1 > 76.9 µM
O=C(CSc1nc2c(sc3ccccc32)c(=O)n1CCO)NCC1CCCO1 (centres undefined) > 76.9 µM
Cc1ccn(C(=O)c2ccc(NC(=O)C3CCCCC3)cc2)n1 > 76.9 µM
CC(C)Cn1c(SCC(=O)c2ccc(Cl)s2)nnc1-c1ccco1 > 76.9 µM
O=C(c1ccco1)[C@@H]1[C@@H]2C(=O)N(c3ccc(Br)cc3)C(=O)[C@@H]2C2c3ccccc3C=CN21 (some centres undefined) > 76.9 µM
CCC(C)NCC(O)COCc1ccc(Cl)cc1 (centres undefined) > 76.9 µM
CC(C)(C)OC(=O)NCCc1nnc(S(=O)(=O)Cc2ccc(Cl)cc2Cl)o1 > 76.9 µM
CCCS(=O)(=O)N1CCC(C(=O)NCC2CCCO2)CC1 (centres undefined) > 76.9 µM
C1CCC2=NCCCN2CC1 > 76.9 µM
COc1ccccc1CNC(=O)C1CCN(S(=O)(=O)c2c(C)noc2C)CC1 > 76.9 µM
O=c1c2[nH]c3ccccc3c2ncn1Cc1ccccn1 > 76.9 µM
Cc1cc(C(=O)CSc2nnc(-c3ccc(Cl)cc3)n2CC2CCCO2)c(C)n1C (centres undefined) > 76.9 µM
CCn1c(-c2cc(OC)ccc2OC)csc1=Nc1c(C)n(C)n(-c2ccccc2)c1=O > 76.9 µM
Cc1ccc(-n2c(SCC(=O)OC(C)C)nnc2-c2ccco2)cc1 > 76.9 µM
CCOC(=O)C1=CSC2=NS(=O)(=O)CCN12 > 76.9 µM
O=C(CSC1CCCCC1)N1CCN(c2ccccc2)CC1 > 76.9 µM
N#Cc1nc(N2CCCC2)nc(N2CCCC2)n1 > 76.9 µM
CCOCc1nnc(NC(=O)CSCc2ccccc2)s1 > 76.9 µM
CCCc1cc(=O)[nH]c(SCC(=O)c2cc(C)n(C(C)COC)c2C)n1 (centres undefined) > 76.9 µM
Cc1cccc2cc(CN(CC3CCCO3)C(=O)c3cccnc3)c3nnnn3c12 (centres undefined) > 76.9 µM
CCOc1nc(-c2ccccc2)ccc1-c1noc(COC)n1 > 76.9 µM
O=C1Nc2c(Br)cc(Br)cc2C1(O)N1CCOCC1 (centres undefined) > 76.9 µM
COc1cccc(N2C(=O)CC(c3c[nH]c4ccccc34)C2=O)c1 (centres undefined) > 76.9 µM
CC1(C)CC(=O)C2=C(C1)NC(=O)CC2c1ccccc1F (centres undefined) > 76.9 µM
